Test results: PubChem BioAssay AID1671194 (National Center for Advancing Translational Sciences (NCATS), 2021)
Several values for one entry are separate records, joined by “and”; a condition that tells them apart may be missing. Identical values can stand only once. Out of some 140,000 compounds screened, about 240 (0.17%) were called active. The shares of active, inactive and inconclusive entries below differ from those in the screen. Calls follow the shape of the dose curve; as a rule, active = well fitted inhibition curve with a large enough effect; inconclusive = small, poorly fitted or top-dose-only effect; inactive = no such curve, though single readings can be large or run the other way. Potencies beside an inconclusive call are fits to weak or partial responses and may not hold up.

Assay: Primary qHTS assay for inhibitors of alpha-synuclein gene (SNCA) expression; also: nearly all actives have a fitted effect of over 45% in size
Details: HEK-293 SNCA-luciferase knock-in, luminescence, 24 h; series mostly up to 57.2 µM
Potency is read from the fitted curve at half-maximal effect; tags tell the direction and shape of the fitted curve.

SMILES	Potency
CC(=O)N1CCN(C(=O)C[C@@H]2CCNC[C@@H]2Cc2cc(COc3ccccc3)on2)CC1	inconclusive: 7.94 µM [inhibitor, single point]
CCOC(=O)c1c(Oc2ccc(OC)cc2)nnc(-c2ccccc2)c1-c1ccccc1	inconclusive: 39.8 µM [inhibitor, single point]
Cn1ccnc1C(O)c1cc2n(n1)CCN(c1ncnc3nc[nH]c13)C2 (centres undefined)	inconclusive: 39.8 µM [inhibitor, single point]
COc1ccccc1NC(=O)Cn1c(=O)n(Cc2ccco2)c(=O)c2cccnc21	inconclusive: 3.98 µM [inhibitor, single point]
CCn1nccc1C(=O)N1C[C@@H](COC)[C@H](c2nc(C)no2)C1	inconclusive: 2.51 µM [inhibitor, single point]
CCn1ccc(C(=O)N2CCCC2c2nc(C3CCOCC3)no2)n1 (centres undefined)	inconclusive: 7.08 µM [inhibitor, single point]
c1ccc(-c2nc(NCc3cc4n(n3)CCCNC4)c3ccccc3n2)cc1	inactive
CCOC(=O)c1ccc(N2C(=O)c3n[nH]c(-c4cccs4)c3C2c2ccc(C(C)C)cc2)cc1 (centres undefined)	inconclusive: 7.08 µM [inhibitor, single point]
COc1ccc(NC(=O)CSc2c3c(nc4ccccc24)CCC3)c(OC)c1	inactive
COc1ccc(-c2[nH]nc3ncc(C(=O)NCCc4ccccc4)nc23)c(C)c1	inconclusive: 28.2 µM [inhibitor, single point]
Cc1nnc(CN(C)c2ccc(-c3nc(-c4cccc(Cl)c4)no3)cn2)o1	inactive
O=C(CSc1nc2c([nH]c3ccccc32)c(=O)n1-c1ccccc1F)Nc1ccccc1C(F)(F)F	inconclusive: 39.8 µM [inhibitor, single point]
O=C(c1ccccc1)N1CCC2(C1)C(=O)N(CCc1ccccc1)c1ccccc12 (centres undefined)	inconclusive: 6.31 µM [inhibitor, full curve, poor fit] and inconclusive: 20 µM [inhibitor, single point]
COc1ccc(-n2c(=O)c(-c3ccc(F)cc3)nc3cnc(N4CCNCC4)nc32)cc1	inconclusive: 17.8 µM [inhibitor, partial curve, poor fit]
Cc1ccccc1OCc1nc(C2CN(C(=O)c3cc(F)ccc3F)C2)no1	inactive
O=C(CN(CCc1ccccc1)S(=O)(=O)c1ccccc1)NCc1ccc(Cl)cc1	inconclusive: 39.8 µM [inhibitor, single point]
COc1cccc(NC(=O)CSCn2nnc3c(=O)[nH]c(Cc4ccc(F)cc4)nc32)c1	inconclusive: 10 µM [inhibitor, partial curve, poor fit]
Cc1ccc(Cl)cc1N1CCN(C(=O)c2cc(S(=O)(=O)N3CCCCCC3)cn2C)CC1	inconclusive: 2.24 µM [inhibitor, full curve, poor fit]
Cc1ccc2c(c1)C(=O)C(=O)N2Cc1ccc(OC(C)C)cc1	inconclusive: 7.94 µM [inhibitor, partial curve]
COc1ccc(CC(=O)N2CCCN(c3cc(-c4ccc(Br)cc4)[nH]n3)CC2)cc1OC	inconclusive: 39.8 µM [inhibitor, single point]

SMILES	Potency
Cc1nc(NCCC2CCOC2)c2c(C)nn(C)c2n1 (centres undefined)	inconclusive: 39.8 µM [inhibitor, single point]
CCOc1ccc(CNC(=O)c2[nH]c3ccccc3c2Sc2ccc(C)cc2)cc1	inactive
Cc1ccsc1CN1CC(Oc2ccc(-c3noc(C4CCOCC4)n3)cc2)C1	inactive
COCc1ccc2c(c1)c(OC(C)(C)C(=O)NCc1ccncc1)nn2Cc1cccc(OC)c1	inactive
CCOc1ccc(-c2cn3c(n2)sc2cc(C(=O)NCCCN(CC)CC)ccc23)cc1	inconclusive: 39.8 µM [inhibitor, single point]
N#Cc1ccc(CN2CCc3nc(C(=O)N4CCOCC4)oc3CC2)cc1	inconclusive: 56.2 µM [inhibitor, single point]
COc1cccc(-c2ccc(C(=O)N3CCC(C(=O)NCc4ccc(F)cc4)CC3)cc2)c1	inactive
CCCOc1ccc(C2c3c(-c4ccccc4O)n[nH]c3C(=O)N2CCCOCC)cc1OCC (centres undefined)	inconclusive: 28.2 µM [inhibitor, single point]
Cc1ccccc1Nc1cc(C(=O)NCCc2ccc(Cl)cc2)c2ccccc2n1	inconclusive: 39.8 µM [inhibitor, single point]
COCCCNC(=O)c1cc2c(=O)[nH]c(-c3ccccc3)cn2n1	inactive
Cc1cccc(OCC(=O)Nc2ccc(Cl)c(-c3nc4ccccc4[nH]3)c2)c1	inconclusive: 28.2 µM [inhibitor, single point]
CC(C)c1ccc(OCc2nc3c(n2Cc2ccccc2)C(=O)N(CC2CCOCC2)CCN3)cc1	inconclusive: 8.91 µM [inhibitor, single point]
CN1CC(=O)N(C2CCC2)Cc2c(NCCCO)ncnc21	inconclusive: 35.5 µM [inhibitor, single point]
COc1ccc(CNC(=O)C[C@@H]2CCNC[C@@H]2Cc2cc(-c3ccc(C(C)(C)C)cc3)on2)cc1OC	inconclusive: 11.2 µM [inhibitor, partial curve, poor fit]
O=C(NCCc1ccccc1)Nc1cccc(-c2ccc(N3CCCCC3)nn2)c1	inconclusive: 10 µM [inhibitor, partial curve, poor fit]
CCc1nc2c(c(-c3ccc(OC)cc3)n1)CCN(Cc1cncs1)CC2	inconclusive: 8.91 µM [inhibitor, single point]
CCc1ccc([S+](=O)([O-])c2nnn3c2nc(NCCCOC)c2ccccc23)cc1	inactive
CCC1CCCCN1CCCNC(=O)c1ccc2c(c1)N(Cc1ccc(Cl)cc1)C(=O)c1ccccc1S2(=O)=O (centres undefined)	inconclusive: 39.8 µM [inhibitor, single point]
O=C(COc1ccc(F)cc1)N1CCCC1c1nc(C2CCOCC2)no1 (centres undefined)	inconclusive: 39.8 µM [inhibitor, single point]
